Sequences with one replicate were seen in a single cluster, so their values are uncertain.
Tested on: ATP
Test: switch fluorescence ratio, 500 uM ATP over buffer (Cy3 cluster intensity, sum of 5 cycles each) (fold (ratio)); higher = stronger signal-on switching upon ATP binding; sequences stand for … in TCGTCGGCAGCGTCAGATGTGTATAAGAGACAGTTTTTTTTTTTTTTTTTTTTTTTTT…TC
Settings: aptamer strand: ATP DNA aptamer (quencher-CACCTGGGGGAGTATTGCGGAGGAAGG + anchor), 100 nM annealed; ATP concentration: 500 uM; one replicate
Outline: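 Clusters carrying Cy3-labelled switching strands on a modified Illumina MiSeq flow-cell were annealed to 100 nM quencher-labelled ATP aptamer and imaged in selection buffer. They were imaged again after 15 min with 500 uM ATP at 22 °C, over five buffer/ATP cycles with NaOH stripping and re-annealing in between. For each cluster, the fluorescence ratio is the summed Cy3 intensity of the target cycles divided by that of the buffer cycles, averaged per switch-domain sequence. Clusters outside 100-1000 RFU were left out.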
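Note: ATP exposure 15 min at 22 °C before imaging.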

Sequence	switch fluorescence ratio
CGGTTTGAGG	0.988
CAATTTGCTA	1.02
AATGTAAATC	1.08
TTCGAGTTTA	0.958
GGGGCGGCCG	1.05
GCAGTCTATT	0.977
CTCCACAGGC	1.75
TGTGGGTGAA	0.995
CTGACACCGA	1.33
GTTCCGTGGC	1.31
GGGGCGTACA	1.69
TGACAGTTAC	1.3
TATAGTAGAC	1.01
GGCTCGGGCA	0.966
TAGGGTCCAT	0.993
AGTGTCACAC	1.01
GGTCCCGTGT	1.01
TTAATTCGTA	1.01
CTTTTACTTT	0.995
GAGTGCTCAC	1.05
CTGAATAAGC	1.03
AAAAGGGCAA	1.21
TATACTAGAT	0.979
GAGCCAAGCC	0.979
GTCCAGTCGC	1.04
TGCGTCGGCT	1.04

Sequence	switch fluorescence ratio
ATATGCACGT	1.04
TATACGTGAC	1.56
GACTATGTGT	0.993
GATTTGCGTG	1.02
CAAAAGTTCG	1.04
CTTAGAAAGT	1.04
GCTAACTGAA	1.01
TTTTACACCC	1.17
TTCAGCATCT	0.995
CGCCGTATGA	0.996
GTTAGGGGTA	0.957
GCAGGGGCAT	0.985
TAACAGGGTA	1.03
TGACTGGCAT	1.05
GTTCGCTTCC	2.11
CCAGCGTCAG	0.982
TAGGGCAAG	1
ATTAATGCTG	1.13
GGCCGCTGCT	0.973
TAGATGCATT	0.992
GAGGGCTTGC	0.997
AGACAATCTG	1.06
TCCGTTGACT	1.08
TCGTTGGAGC	1
ACTTGTGCTG	1
CCAAAACAGG	1.08

Sequence	switch fluorescence ratio
TATGTAGCGT	1.03
GCAACTACAA	1.09
TTTTGCCGC	0.978
AGCAACATCT	1.14
GGTGTGGCAC	1.04
GACGCAGTTG	1.19
GATGCTATCG	0.948
AAGCCGTTGA	0.989
CGCCCAGCAA	6.58
TGCGACCGGT	0.968
AGTGCCGGAG	0.981
GGTTGGAGTA	1.21
GGCTTGGTAG	1
AGTCAATTTG	1.05
GGCACGGACC	1.3
TATTCTACA	1.02
AGATTAGTAG	1.02
CGGGCGTG	0.976
TAAGCTAGTT	0.966
CGGTCAATTT	0.953
TGGTAACGCC	1.06
ACTGTAGGGT	1.08
TTCCACTCGG	1.01
AAGAATTCTT	0.965
AGTCATTATC	0.965
TCGGAGTTAT	1.09

Sequence	switch fluorescence ratio
TTGCTGTGG	1
GCGGTACGG	1.06
CCCTTGCCCC	1.11
CCCACTCTCC	1.36
CGAACATGAG	1
ACGCACGGAT	1.41
GGTCACGGCT	0.962
GGCACCATCA	1.04
GGCATTGAGT	0.986
ATTGGGCTAG	1
TACTCATGCC	0.958
ATACTGGGGG	1.03
AGGTAAGTCA	0.968
CACATTCTAG	0.965
GTTGGCTGGT	0.992
CATTTTTATT	1
ACCACCGGTC	1
TCATAGAACT	1.01
GCTCGCGAGG	1.01
TGCAGTCAGG	1.05
GGCAGATAGG	0.962
GACCCACGTG	1.01
ACATTGCGAG	1
GCTACATCAC	1.33
AACTGCCACA	1.22
ATGGGCTAGT	0.954

Sequence	switch fluorescence ratio
TATACGTAG	1
TCACACCTGG	1.06
GCTTTTGCTC	0.981
CGCTGTATA	1.01
ACCTACTCGA	1.23
CTATGCGAGG	0.983
CCTCGGACGT	1.15
ATCTCAGATG	1.05
AGATAGTTAG	1.02
GCCTTGTCT	0.967
CGTGGACGGA	1
CTATGGTTAT	0.989
ACCCTCCCCG	2.17
TGTCACTTGA	0.991
CAGCGTGTG	1.05
CGGTGATCAT	0.966
AGGTGACATG	1.02
AGGCAGTTAT	0.963
TGTGGATATC	0.946
TAAGTGATTC	1.02
GCGACCGGGT	1.04
AGGTCATAGG	1.02
ACCACGACAC	1.99
GGACGCGTGT	1.12
TTACGGGTTC	0.998
AAGTTCAGGG	0.988

Sequence	switch fluorescence ratio
TTGGAACTTT	1.05
TCCGTATTCA	0.954
GATATCAGTC	1.03
ACTTGGGTTC	0.979
TATCCGTTTC	1.05
CCATCCGTAT	1.66
ATCGGTACTA	0.996
ATTGATAATG	1.02
TTGACCTGGA	1.13
GCATCCCACT	1.05
ATATCACGTC	1.02
CCAGGGTTCG	1.12
TGCCCTGTCG	0.98
AAGTTGACA	1
TTGCCACGCG	1
TCCCCACTCA	1.09
GCGCATGTTC	1.44
CCTTGAACGC	1.4
ACTATCCACA	1.07
CTTATAATTC	1.02
AAGGTTTGGC	1.09
TTCAGCGGGG	0.979
GAGCCTATCT	0.989

From the supplement of paper PMC10126150
